Experimental data as given in PubChem BioAssay (NCATS).
The shares of active, inactive and inconclusive entries below differ from those in the screen. For part of these data: Potencies of inconclusive entries are doubtful fits and often do not repeat. Activity calls are given as the source filed them. Unless noted, the call rests on the fitted dose curve; in most records, active means well fitted curve in the direction sought with a large enough effect; inconclusive means small, poorly fitted or top-dose-only effect, or another doubt; inactive means no such curve, though single readings can be large; an effect the other way counts as inactive or inconclusive.

Columns and labels:
[1] = target: Cytochrome P450 3A4 (Homo sapiens) (UniProt P08684); assay: Cytochrome P450 family 3 subfamily A member 4 (CYP3A4) small molecule antagonists: luciferase qHTS assay (AID 1645841; active means well fitted curve in the direction sought with a large enough effect in the repeat runs; inconclusive means weak or mixed curves; inactive means no such curve, though single readings can be large; an effect the other way counts as inactive or inconclusive; further: nearly all actives have a fitted effect of over 45% in size)
UniProt P08684, sequence (P08684 whole entry, looked up): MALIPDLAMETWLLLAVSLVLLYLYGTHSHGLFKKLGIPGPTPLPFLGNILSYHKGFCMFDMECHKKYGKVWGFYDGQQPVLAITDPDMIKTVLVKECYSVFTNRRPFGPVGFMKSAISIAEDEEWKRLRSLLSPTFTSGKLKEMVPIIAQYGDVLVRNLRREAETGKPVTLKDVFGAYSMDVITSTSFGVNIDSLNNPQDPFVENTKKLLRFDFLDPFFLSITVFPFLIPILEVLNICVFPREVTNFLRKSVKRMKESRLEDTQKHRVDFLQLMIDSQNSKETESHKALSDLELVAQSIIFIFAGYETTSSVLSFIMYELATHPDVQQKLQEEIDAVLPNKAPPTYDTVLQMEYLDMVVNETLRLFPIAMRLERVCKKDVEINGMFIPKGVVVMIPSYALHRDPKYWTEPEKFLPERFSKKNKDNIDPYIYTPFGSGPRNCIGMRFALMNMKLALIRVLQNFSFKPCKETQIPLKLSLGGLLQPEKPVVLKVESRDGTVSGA
Summary of the method: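 Luminescent CYP3A4 activity readout: compounds plus enzyme-substrate mix 10 min at room temperature, reaction started with NADPH regenerating system for 1 h, stopped with detection reagent, read after 20 min. Ketoconazole served as control.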

[2] = qHTS of pediatric cancer cell lines to identify multiple opportunities for drug repurposing: Confirmatory screen for BT-12 cells (AID 1347112);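 further: viability read after 48 h of compound exposure; nearly all actives have a fitted effect of over 55% in size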
Summary of the method: (§1)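 Cells (500-1,000/well) rested 5 h, then received compounds for 48 h; metabolically active cells were measured by CellTiter-Glo luminescence. Final concentrations spanned up to 46 µM (MIPE, 11-point) or 0.59 nM-46 µM (NPC, 8-point) in primary screens, 11-point in follow-ups.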

[3] = qHTS of pediatric cancer cell lines to identify multiple opportunities for drug repurposing: Confirmatory screen for BT-37 cells (AID 1347117); further: nearly all actives have a fitted effect of over 55% in size
Summary of the method: as §1

[4] = qHTS of pediatric cancer cell lines to identify multiple opportunities for drug repurposing: Confirmatory screen for MG 63 (6-TG R) cells (AID 1347119); further: nearly all actives have a fitted effect of over 55% in size
Summary of the method: as §1

[5] = Quantitative High-Throughput drug screen in 47 multiple myeloma cell lines against the NCATS MIPE library collection: ARP1_JJKsccF8 cell viability assay (AID 1918928; further: nearly all actives have a fitted effect of over 40% in size)
Summary of the method: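 Cell viability inhibition in this qHTS is measured via ATP content (CellTiter-Glo) after 48 h drug exposure at 37 °C. Wells hold 500 cells; DMSO-treated wells define 100% and medium-only wells 0%.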

[6] = Quantitative High-Throughput drug screen in 47 multiple myeloma cell lines against the NCATS MIPE library collection: OCIMY5_PLB cell viability assay (AID 1918988); further: nearly all actives have a fitted effect of over 65% in size
Summary of the method: (§2)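 ATP-based luminescence (CellTiter-Glo, 5 min RT incubation) quantified surviving cells following two days' treatment with MIPE 4.0 agents at 37 °C, 5% CO2.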

[7] = Quantitative High-Throughput drug screen in 47 multiple myeloma cell lines against the NCATS MIPE library collection: PE2_PLB cell viability assay (AID 1919869); further: nearly all actives have a fitted effect of over 35% in size
Summary of the method: as §2

WaGa = assay: qHTS assay to identify novel small-molecules to repurpose for Merkel cell carcinoma treatment (AID 1296009); details: MCC and control cell lines, CellTiter-Glo viability, 72 h; series mostly up to 46 µM; further: nearly all actives have a fitted effect of over 60% in size
Summary of the method: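 Cell viability measured by CellTiter-Glo following 72 hr compound treatment at 37 degree celsius, with NPC and MIPE libraries tested in 8- and 11-point concentration series.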

[8] = qHTS of pediatric cancer cell lines to identify multiple opportunities for drug repurposing: Confirmatory screen for Rh30 cells (AID 1347126); further: nearly all actives have a fitted effect of over 55% in size
Summary of the method: as §1

[9] = Quantitative High-Throughput drug screen in 47 multiple myeloma cell lines against the NCATS MIPE library collection: FR4_PLB cell viability assay (AID 1918924; further: nearly all actives have a fitted effect of over 35% in size)
Summary of the method: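 Approved and investigational drugs from MIPE 4.0 were added by pin tool to 500 cells per well. After 48 hours at 37C, ATP-based CellTiter-Glo luminescence indicated remaining viability.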

[10] = Quantitative High-Throughput drug screen in 47 multiple myeloma cell lines against the NCATS MIPE library collection: AMO1_DSMZ cell viability assay (AID 1918927; further: nearly all actives have a fitted effect of over 30% in size); details: AMO1 myeloma cells viability, CellTiter-Glo ATP luminescence, 48 h; series mostly up to 45.8 µM
Summary of the method: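 We plated 500 myeloma cells per well, pinned in MIPE 4.0 compounds, and incubated for 48 hours at 37C. ATP was then quantified with CellTiter-Glo, with DMSO and media-only wells defining 100% and 0%.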

[11] = Quantitative High-Throughput drug screen in 47 multiple myeloma cell lines against the NCATS MIPE library collection: SKMM1_PLB cell viability assay (AID 1919863); details: SKMM1 myeloma viability, CellTiter-Glo ATP, 48 h; viability: hits give low values; further: nearly all actives have a fitted effect of over 35% in size
Summary of the method: as §2

[12] = Quantitative High-Throughput drug screen in 47 multiple myeloma cell lines against the NCATS MIPE library collection: KMS11_JCRBsus cell viability assay (AID 1919873); further: nearly all actives have a fitted effect of over 50% in size
Summary of the method: as §2

[13] = Quantitative High-Throughput drug screen in 47 multiple myeloma cell lines against the NCATS MIPE library collection: KMS12BM_JCRB cell viability assay (AID 1918971); further: nearly all actives have a fitted effect of over 35% in size
Summary of the method: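 Viability readout: CellTiter-Glo luminescence following 5 min room-temperature incubation with reagent. Prior exposure: 48 h, 37C, humidified 5% CO2, 500 cells per well.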

[14] = Quantitative High-Throughput drug screen in 47 multiple myeloma cell lines against the NCATS MIPE library collection: RPMI8226_ATCC cell viability assay (AID 1919871); further: nearly all actives have a fitted effect of over 30% in size
Summary of the method: as §2

[15] = qHTS of pediatric cancer cell lines to identify multiple opportunities for drug repurposing: Confirmatory screen for U-2 OS cells (AID 1347122); further: nearly all actives have a fitted effect of over 65% in size
Summary of the method: as §1

[16] = qHTS of pediatric cancer cell lines to identify multiple opportunities for drug repurposing: Primary screen for Saos-2 cells (AID 1347097); further: nearly all actives have a fitted effect of over 40% in size
Summary of the method: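 Following a 5-hour attachment period, cells at 500-1,000/well received compounds and were cultured for 48 hours. CellTiter-Glo was added and luminescence read to estimate viable, metabolically active cells.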

CP335 = assay: qHTS profiling for inhibitors of Plasmodium falciparum proliferation (AID 504749); further: nearly all actives have a fitted effect of over 60% in size; details: P. falciparum in erythrocytes, SYBR Green DNA, 72 h; series mostly up to 28.7 µM
Summary of the method: (§3)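 In a 72 h erythrocytic culture (37 C, humidified, 5% CO2) at 2.5% hematocrit and 0.3% starting parasitemia, compounds were tested; SYBR Green I in detergent lysis buffer stained parasite DNA overnight.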

DIV14 = assay: as above; details: P. falciparum in erythrocytes, SYBR Green DNA, 72 h; series mostly up to 28.7 µM
Summary of the method: as §3

TAB109 = assay: as above; details: P. falciparum in erythrocytes, SYBR Green DNA, 72 h; series mostly up to 28.7 µM
Summary of the method: as §3

Measured: Potency
Potency means the concentration at half of the fitted maximal effect; tags describe the fitted curve by direction and shape.

O=C(Nc1ccc(Cl)cc1)Nc1ccc(Cl)c(C(F)(F)F)c1
inconclusive: [1] 8.71 µM [falling, partial curve]

COC(=O)Nc1ccc(-c2nc(N3CCOCC3)c3cnn(C4CCN(Cc5cccnc5)CC4)c3n2)cc1
active: [3] 0.928 µM | [4] 1.85 µM | [5] 0.0743 µM | [6] 20.9 µM | [7] 46.9 nM
inconclusive: [2] 0.928 µM [cytotoxic, full curve] | WaGa 4.69 µM [inhibitor, full curve]

CC(C=CC1=C(C)CCCC1(C)C)=CC=CC(C)=CC(=O)Nc1ccc(O)cc1
inconclusive: [8] 269 nM [cytotoxic, full curve, poor fit] | WaGa 48.1 µM [inhibitor, partial curve]
active: [4] 42.7 µM | [9] 9.59 µM | [10] 3.4 µM | [5] 19.1 µM | [11] 19.1 µM | [12] 19.1 µM

C=CC(=O)Nc1cccc(Oc2nc(Nc3ccc(N4CCN(C)CC4)cc3)ncc2Cl)c1
active: [2] 16.5 µM | [4] 2.93 µM | [11] 18.7 µM | [7] 5900 nM | [14] 14.8 µM
inconclusive: [3] 2.61 µM [cytotoxic, full curve, poor fit] | [8] 13100 nM [cytotoxic, partial curve, poor fit] | [9] 37.2 µM [cytotoxic, single point] | [13] 5260 nM [cytotoxic, partial curve, poor fit]

Cc1cc(Nc2ncc3cc(-c4c(Cl)cccc4Cl)c(=O)n(C)c3n2)ccc1F
inactive: [1]

O=C(c1ccc(F)cc1)N1CCC[C@H](c2nc(-c3ccc(F)cc3)no2)C1
inactive: [5] | [7]
inconclusive: [13] 833 nM [cytotoxic, partial curve, poor fit] | [6] 18.7 µM [cytotoxic, partial curve, poor fit] | [11] 0.0053 µM [cytotoxic, full curve, poor fit] | [14] 16.6 µM [cytotoxic, partial curve, poor fit]

CNC(=O)c1ccc(Nc2cc(Nc3ccccc3S(=O)(=O)C(C)C)c3cc[nH]c3n2)nc1
inconclusive: [15] 4.14 µM [cytotoxic, full curve, poor fit]
active: [2] 13.1 µM | [3] 6.57 µM | [8] 4140 nM | [10] 2.09 µM | [14] 18.7 µM | WaGa 4.18 µM

Nc1ncnc2c1c(-c1cnc3[nH]ccc3c1)nn2C1CCCC1
inconclusive: [15] 0.827 µM [cytotoxic, full curve, poor fit] | WaGa 4.18 µM [inhibitor, partial curve]
active: [8] 585 nM | [10] 0.662 µM | [13] 743 nM | [11] 4.69 µM | [14] 0.166 µM | [12] 0.0469 µM

C#C[C@]1(O)CC[C@H]2[C@@H]3CCc4cc(OC5CCCC5)ccc4[C@H]3CC[C@@]21C
inconclusive: [16] 33.5 µM [cytotoxic, single point] | CP335 = 21.3 µM [inhibitor, partial curve, poor fit] | DIV14 = 21.3 µM [inhibitor, partial curve, poor fit]
inactive: TAB109
